The sequences are guide strands of siRNAs; only the seed at positions 2 to 7 varies.
How the values were obtained:
GL261 = assay: cell viability relative to siNT1 (ATP content); H4 human neuroglioma and GL261 mouse glioma; higher = less toxic; conditions: siRNA concentration 25 nM; 96 h; mouse
H4 = assay: as above; conditions: siRNA concentration 10 nM; 96 h; human
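Also: cells reverse transfected with siRNA duplexes via lipid reagent, ATP read by luminescence, triplicate wells, values scaled to mean viability with non-targeting control siNT1.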

| Sequence | cell viability (GL261) [%] | cell viability (H4) [%] |
| --- | --- | --- |
| UUUGGCAACAUGUAAACCA | 22.6 | 79 |
| UUUGGCCACAUGUAAACCA | 35.5 | 45.8 |
| UUUGGCGACAUGUAAACCA | 50.4 | 98.5 |
| UUUGGCUACAUGUAAACCA | 17.3 | 74.7 |
| UUUGGGAACAUGUAAACCA | 50.2 | 90.5 |
| UUUGGGCACAUGUAAACCA | 21.6 | 59.3 |
| UUUGGGGACAUGUAAACCA | 52.4 | 64.3 |
| UUUGGGUACAUGUAAACCA | 51.7 | 68.4 |
| UUUGGUAACAUGUAAACCA | 69.6 | 90.5 |
| UUUGGUCACAUGUAAACCA | 37.2 | 73.3 |
| UUUGGUGACAUGUAAACCA | 45.3 | 86.3 |
| UUUGGUUACAUGUAAACCA | 60.8 | 94.2 |
| UUUGUAAACAUGUAAACCA | 67.8 | 110 |
| UUUGUACACAUGUAAACCA | 61.2 | 88.9 |
| UUUGUAGACAUGUAAACCA | 52.6 | 80.6 |
| UUUGUAUACAUGUAAACCA | 46.7 | 85.9 |
| UUUGUCAACAUGUAAACCA | 73.3 | 66.8 |
| UUUGUCCACAUGUAAACCA | 34.2 | 70.3 |
| UUUGUCGACAUGUAAACCA | 68.7 | 108 |
| UUUGUCUACAUGUAAACCA | 63.1 | 70.9 |
| UUUGUGAACAUGUAAACCA | 35.9 | 95.1 |
| UUUGUGCACAUGUAAACCA | 21.9 | 81.6 |
| UUUGUGGACAUGUAAACCA | 38.6 | 70.3 |

| Sequence | cell viability (GL261) [%] | cell viability (H4) [%] |
| --- | --- | --- |
| UUUGUGUACAUGUAAACCA | 25 | 92 |
| UUUGUUAACAUGUAAACCA | 46.1 | 97.4 |
| UUUGUUCACAUGUAAACCA | 18.3 | 60.1 |
| UUUGUUGACAUGUAAACCA | 54 | 90.3 |
| UUUGUUUACAUGUAAACCA | 40.1 | 76.7 |
| UUUUAAAACAUGUAAACCA | 61.7 | 77.4 |
| UUUUAACACAUGUAAACCA | 47.4 | 86.6 |
| UUUUAAGACAUGUAAACCA | 59.4 | 77.1 |
| UUUUAAUACAUGUAAACCA | 59.1 | 87.8 |
| UUUUACAACAUGUAAACCA | 48.4 | 92.2 |
| UUUUACCACAUGUAAACCA | 25.9 | 64.4 |
| UUUUACGACAUGUAAACCA | 56.4 | 107 |
| UUUUACUACAUGUAAACCA | 53.3 | 82.3 |
| UUUUAGAACAUGUAAACCA | 56.6 | 109 |
| UUUUAGCACAUGUAAACCA | 28.5 | 58 |
| UUUUAGGACAUGUAAACCA | 33.6 | 93.2 |
| UUUUAGUACAUGUAAACCA | 53.8 | 95 |
| UUUUAUAACAUGUAAACCA | 55.9 | 101 |
| UUUUAUCACAUGUAAACCA | 21.5 | 74.3 |
| UUUUAUGACAUGUAAACCA | 45.8 | 101 |
| UUUUAUUACAUGUAAACCA | 44.7 | 101 |
| UUUUCAAACAUGUAAACCA | 42.7 | 101 |
| UUUUCACACAUGUAAACCA | 51.1 | 96.9 |

| Sequence | cell viability (GL261) [%] | cell viability (H4) [%] |
| --- | --- | --- |
| UUUUCAGACAUGUAAACCA | 37 | 107 |
| UUUUCAUACAUGUAAACCA | 54.9 | 98.5 |
| UUUUCCAACAUGUAAACCA | 40.3 | 96.7 |
| UUUUCCCACAUGUAAACCA | 49.9 | 48.5 |
| UUUUCCGACAUGUAAACCA | 51.1 | 102 |
| UUUUCCUACAUGUAAACCA | 13.4 | 52.9 |
| UUUUCGAACAUGUAAACCA | 50.7 | 90.3 |
| UUUUCGCACAUGUAAACCA | 20.2 | 81.2 |
| UUUUCGGACAUGUAAACCA | 50.3 | 88.7 |
| UUUUCGUACAUGUAAACCA | 52.2 | 85.1 |
| UUUUCUAACAUGUAAACCA | 68.5 | 77.2 |
| UUUUCUCACAUGUAAACCA | 19.6 | 65.4 |
| UUUUCUGACAUGUAAACCA | 49.6 | 87 |
| UUUUCUUACAUGUAAACCA | 62.3 | 97.8 |
| UUUUGAAACAUGUAAACCA | 62.6 | 97.4 |
| UUUUGACACAUGUAAACCA | 44.1 | 60.9 |
| UUUUGAGACAUGUAAACCA | 66.1 | 100 |
| UUUUGAUACAUGUAAACCA | 63.7 | 90.2 |
| UUUUGCAACAUGUAAACCA | 37.7 | 91.5 |
| UUUUGCCACAUGUAAACCA | 9.55 | 28.4 |
| UUUUGCGACAUGUAAACCA | 46.6 | 89 |
| UUUUGCUACAUGUAAACCA | 20.9 | 63 |
| UUUUGGAACAUGUAAACCA | 63.9 | 84.4 |

| Sequence | cell viability (GL261) [%] | cell viability (H4) [%] |
| --- | --- | --- |
| UUUUGGCACAUGUAAACCA | 7.5 | 30.5 |
| UUUUGGGACAUGUAAACCA | 44.4 | 67.6 |
| UUUUGGUACAUGUAAACCA | 36.7 | 73.2 |
| UUUUGUAACAUGUAAACCA | 43.6 | 106 |
| UUUUGUCACAUGUAAACCA | 56.9 | 77.2 |
| UUUUGUGACAUGUAAACCA | 65.2 | 100 |
| UUUUGUUACAUGUAAACCA | 79.1 | 96.7 |
| UUUUUAAACAUGUAAACCA | 64.9 | 106 |
| UUUUUACACAUGUAAACCA | 80.3 | 98.2 |
| UUUUUAGACAUGUAAACCA | 59.9 | 104 |
| UUUUUAUACAUGUAAACCA | 71.2 | 104 |
| UUUUUCAACAUGUAAACCA | 66.6 | 100 |
| UUUUUCCACAUGUAAACCA | 10.2 | 47.2 |
| UUUUUCGACAUGUAAACCA | 56.3 | 84.4 |
| UUUUUCUACAUGUAAACCA | 37.8 | 88.4 |
| UUUUUGAACAUGUAAACCA | 64.9 | 94.5 |
| UUUUUGCACAUGUAAACCA | 24.4 | 76.6 |
| UUUUUGGACAUGUAAACCA | 26.3 | 82.2 |
| UUUUUGUACAUGUAAACCA | 39.5 | 95.2 |
| UUUUUUAACAUGUAAACCA | 64.4 | 89.1 |
| UUUUUUCACAUGUAAACCA | 58.3 | 97.3 |
| UUUUUUGACAUGUAAACCA | 69.7 | 100 |
| UUUUUUUACAUGUAAACCA | 94.4 | 99.4 |
